Among the data in the antibiotic and cytotoxicity screens of Wong et al. (2023) are cytotoxicity call and growth inhibition call values, retold here.

SMILES strings stand for the structures. Some of the results follow.

For assay [1], the system named is HSkMC (human skeletal muscle cells). The assay is described as follows: cytotoxicity call (relative viability < 0.9). To be noted: 10 µM.
The test system of assay [2] is HepG2. The assay is described as follows: cytotoxicity call (relative viability < 0.9). The conditions noted are these: 10 µM.
In assay [3] the test system is S. aureus RN4220. The experiment in a line: growth inhibition call (relative growth <= 0.2). To be noted: 50 µM.

Regarding `C[C@H](CO)N1C[C@H](C)[C@H](CN(C)C(=O)c2ccccc2)OCCCC[C@H](C)Oc2ccc(NC(=O)CCCCCC(=O)Nc3ccccc3N)cc2C1=O`, the cytotoxicity call in assay [1] and in assay [2] was “inactive” throughout. Moreover, the growth inhibition call in assay [3] was “inactive”.

`C[C@H]1CN([C@@H](C)CO)C(=O)c2cccc(NS(=O)(=O)c3ccc(F)cc3)c2O[C@@H]1CN(C)S(=O)(=O)c1cccs1`: the cytotoxicity call in assay [1] and in assay [2] was “inactive” each time. Moreover, in assay [3], the growth inhibition call is “inactive”.

For `Cc1cc(O)cc(=O)[nH]1`, the cytotoxicity call in assay [1] and in assay [2] was “inactive” throughout. In addition, the growth inhibition call in assay [3] is “inactive”.

`C[C@@H]1CCCCO[C@@H](CN(C)Cc2ccccc2)[C@@H](C)CN([C@@H](C)CO)C(=O)c2cc(NC(=O)C3CCCCC3)ccc2O1`: the cytotoxicity call in assay [1] and in assay [2] was “inactive” throughout. Besides, the growth inhibition call in assay [3] is “inactive”.

`C[C@@H]1CCCCO[C@H](CN(C)C(=O)Nc2ccc3c(c2)OCO3)[C@H](C)CN([C@H](C)CO)C(=O)c2cc(NS(=O)(=O)c3ccc(F)cc3)ccc2O1`: the cytotoxicity call in assay [1] and in assay [2] was “inactive” throughout. Besides, in assay [3], the growth inhibition call was “inactive”.

Consider `Cc1noc(C)c1NC(=O)N(C)C[C@H]1OCCCC[C@@H](C)Oc2ccc(NC(=O)c3ccccc3)cc2C(=O)N([C@H](C)CO)C[C@H]1C`, for which the cytotoxicity call in assay [1] and in assay [2] was “inactive” throughout. The growth inhibition call in assay [3] is “inactive”.

Regarding `O=C(O)[C@@H](O)c1ccccc1`, the cytotoxicity call in assay [1] and in assay [2] was “inactive” each time. Besides, in assay [3], the growth inhibition call was “inactive”.

Regarding `C[C@@H]1CCCCO[C@@H](CN(C)Cc2ccc(C(F)(F)F)cc2)[C@@H](C)CN([C@H](C)CO)C(=O)c2cc(NC(=O)c3ccccc3)ccc2O1`, the cytotoxicity call in assay [1] and in assay [2] was “inactive” each time. For the same molecule, the growth inhibition call in assay [3] was “inactive”.

For the molecule `O=c1cc(-c2ccccc2)sc2c1ccc1ccccc12`, the cytotoxicity call in assay [1] and in assay [2] was “inactive” each time. In addition, the growth inhibition call in assay [3] was “inactive”.

Turning to `C[C@H]1CN([C@@H](C)CO)C(=O)c2cccc(NC(=O)Nc3ccc(C(F)(F)F)cc3)c2O[C@H]1CN(C)C(=O)Nc1ccccc1`, the cytotoxicity call in assay [1] and in assay [2] was “inactive” each time. Further, the growth inhibition call in assay [3] was “active”.

For the molecule `C[C@@H]1CN([C@@H](C)CO)C(=O)Cc2cc(NS(=O)(=O)c3cn(C)cn3)ccc2O[C@@H]1CN(C)Cc1ccc(C(=O)O)cc1`, the cytotoxicity call in assay [1] and in assay [2] was “inactive” throughout. Further, the growth inhibition call in assay [3] was “inactive”.

For the molecule `C[C@H](CO)N1C[C@H](C)[C@H](CN(C)C(=O)Nc2ccc(F)cc2)Oc2ccc(NS(C)(=O)=O)cc2C1=O`, the cytotoxicity call in assay [1] and in assay [2] was “inactive” each time. Besides, the growth inhibition call in assay [3] is “inactive”.

On to `CNCC(O)c1ccc(O)c(O)c1.O=C(O)C(O)C(O)C(=O)O` (stereo unspecified), for which the cytotoxicity call in assay [1] is “inactive”. For the same molecule, the cytotoxicity call in assay [2] was “active”. For the same molecule, the growth inhibition call in assay [3] is “inactive”.

For `CCn1cc(C(=O)O)c(=O)c2ccc(C)nc21`, the cytotoxicity call in assay [1] and in assay [2] was “inactive” each time. For the same molecule, the growth inhibition call in assay [3] was “inactive”.

Take `NCC[C@@H]1CC[C@H](NC(=O)Nc2ccc(F)cc2)[C@@H](CO)O1`: the cytotoxicity call in assay [1] and in assay [2] was “inactive” each time. The growth inhibition call in assay [3] is “inactive”.

Consider `C[C@H](CO)N1C[C@H](C)[C@@H](CN(C)C(=O)Nc2ccc(F)cc2)OCCCC[C@H](C)Oc2ccc(NC(=O)Nc3ccc(F)cc3)cc2C1=O`, for which the cytotoxicity call in assay [1] and in assay [2] was “inactive” each time. In assay [3], the growth inhibition call is “inactive”.

With `C[C@@H]1CN([C@H](C)CO)C(=O)c2cccc(NC(=O)Nc3ccc(F)cc3)c2O[C@@H]1CN(C)Cc1ccc(C(=O)Nc2ccccc2N)cc1`, the cytotoxicity call in assay [1] and in assay [2] was “inactive” each time. In addition, in assay [3], the growth inhibition call is “inactive”.

As for `C[C@@H]1CCCCO[C@H](CN(C)C(=O)C2CCCCC2)[C@H](C)CN([C@H](C)CO)C(=O)c2cc(NC(=O)C3CCCCC3)ccc2O1`, the cytotoxicity call in assay [1] and in assay [2] was “inactive” in each case. In addition, in assay [3], the growth inhibition call was “inactive”.

With `C[C@H](CO)N1C[C@H](C)[C@@H](CN(C)C(=O)Nc2cccc3ccccc23)Oc2ccc(NC(=O)NC3CCCCC3)cc2CC1=O`, the cytotoxicity call in assay [1] and in assay [2] was “inactive” in each case. The growth inhibition call in assay [3] is “inactive”.

In the case of `C[C@H](CO)N1C[C@H](C)[C@H](CN(C)C(=O)Cc2ccccc2)OCCCC[C@H](C)Oc2ccc(NC(=O)Cc3ccccc3)cc2C1=O`, the cytotoxicity call in assay [1] and in assay [2] was “inactive” throughout. Moreover, in assay [3], the growth inhibition call was “inactive”.

Consider `C[C@@H]1CN([C@H](C)CO)C(=O)c2cccc(NC(=O)c3nc4ccccc4s3)c2O[C@H]1CN(C)Cc1ccc(C(=O)Nc2ccccc2N)cc1`, for which the cytotoxicity call in assay [1] and in assay [2] was “inactive” each time. Further, in assay [3], the growth inhibition call is “inactive”.

Consider `C[C@@H]1CN([C@@H](C)CO)C(=O)c2cccc(NS(=O)(=O)c3ccccc3)c2O[C@@H]1CN(C)CC1CC1`, for which the cytotoxicity call in assay [1] and in assay [2] was “inactive” in each case. Besides, the growth inhibition call in assay [3] is “inactive”.

As to `C[N+](C)(C)CCCCCCNC(=O)[C@H]1C[C@H]2C(=O)N[C@@H](Cc3ccccc3)C(=O)N2[C@H]1c1ccc(O)cc1`, the cytotoxicity call in assay [1] and in assay [2] was “inactive” in each case. Moreover, the growth inhibition call in assay [3] is “inactive”.

In the case of `COCC(=O)N[C@H]1C=C[C@@H](CC(=O)N2CCCCC2)O[C@@H]1CO`, the cytotoxicity call in assay [1] and in assay [2] was “inactive” throughout. Besides, the growth inhibition call in assay [3] is “inactive”.

Take `Cc1ncc(CO)c(/C=N/O)c1O`: the cytotoxicity call in assay [1] and in assay [2] was “inactive” throughout. Further, the growth inhibition call in assay [3] is “inactive”.

As for `C[C@@]1(C2CC2)NC(=O)NC1=O`, the cytotoxicity call in assay [1] and in assay [2] was “inactive” each time. Besides, in assay [3], the growth inhibition call is “inactive”.

In the case of `Cc1ccc(S(=O)(=O)N2C[C@H](O)COC[C@@H]3O[C@@H](CC(=O)NCCCN(C)C)CC[C@H]32)cc1`, the cytotoxicity call in assay [1] and in assay [2] was “inactive” each time. Besides, the growth inhibition call in assay [3] was “inactive”.
